Test results as given in the RNAGym collection of RNA variant scans (doi:10.1093/nar/gkz1192).
The source gives no read counts; variants with many changes may rest on few reads.

B1: CPEB3 Ribozyme (parent)
chain: UAACAGGGGGCCACAGCAGAAGCGUUCACGUCGCAGCCCCUGUCAGAUUCUGGUGAAUCUGCGAAUUCUGCUGUAUAUCUC

Variants of: B1
Assay: self-cleavage, relative activity (ratio to wild type); higher = more cleavage; in vitro, sequencing
In short: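 Relative activity was defined as the cleaved/total read fraction for a variant divided by the same fraction for the unmutated ribozyme. CPEB3 self-cleaving ribozyme libraries were made by rounds of error-prone PCR, barcoded, and transcribed in vitro with T7 RNA polymerase for 5 hours at 37°C, and cleavage ran through transcription plus a 15 min DNase I step before EDTA. Illumina sequencing of template-switched reverse transcripts gave the reads, and DNA sequencing mapped the barcodes. Averages come from three batches, using variants with at least 5 reads.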

Variant	self-cleavage
A21G U41C U74A	1.06
A21G U41C U74C U80A	0.94
A21G U41G C71U	0.5
A21G U41G G70C	0.09
A21G U43A A47U U54A A57G	0.09
A21G U43A A56G U69A	0.27
A21G U43A U48C	0.24
A21G U43A U51C A64G	0.24
A21G U43A U51C G55U U72A	0.37
A21G U43A U51C U60C U72A	0.26
A21G U43A U58C	0.12
A21G U43A U74G	1.17
A21G U43C A56G	0.16
A21G U43C A56U	0.59
A21G U43C A64G A77G	0.17
A21G U43C C50A U66C U72G	0.09
A21G U43C C59U U60A A64C	0.11
A21G U43C C59U U78C	0.22
A21G U43C C68U	0.33
A21G U43C U49C U58C G70C U80C	0.09
A21G U43C U60C U67A	0.26
A21G U43C U72C U74A	0.28
A21G U48A G55A U72C	0.06
A21G U48C A64G U80C	0.19

Variant	self-cleavage
A21G U48C A65G	0.13
A21G U48C U51A A57G U60C	0.25
A21G U48C U58C	0.11
A21G U48C U60C U78C	0.06
A21G U48C U76C	0.46
A21G U48G U60A U76A	0.17
A21G U48G U72C	0.33
A21G U49A U51A A65G	0.08
A21G U49A U66C	0.72
A21G U49A U69C U72C U74C	0.11
A21G U49A U72A	0.09
A21G U49C A56G	0.7
A21G U49C A56U	0.14
A21G U49C A57G U80A	0.44
A21G U49C G53U	0.5
A21G U49C G63A A64G U67C A75G U78C	0.07
A21G U49C U51A U72A	0.24
A21G U49C U58A	0.06
A21G U49C U67A	0.2
A21G U49C U78C	0.39
A21G U49C U80C	0.32
A21G U51A A56U	0.29
A21G U51A A77G	0.85
A21G U51A C62G C79A	0.21

Variant	self-cleavage
A21G U51A G55A U67C U72C U78C	0.17
A21G U51A U74A	1.14
A21G U51C C62U U67C	0.12
A21G U51C U58C	0.1
A21G U51C U58C C62U U66C	0.07
A21G U51C U60C C71A	0.19
A21G U51C U67A U72C	0.18
A21G U51C U80A	0.66
A21G U54A A64G A65G U69C	0.1
A21G U54A A64U U80C	0.14
A21G U54A G63A	0.6
A21G U54A U69C	0.19
A21G U54C A56U	0.22
A21G U54C A64G	0.41
A21G U54C A64U U78C	0.09
A21G U54C A65G	0.33
A21G U54C A75U	0.57
A21G U54C G70A C71G	0.08
A21G U54C U60A	0.16
A21G U54C U60A U67A	0.16
A21G U54C U60A U72A	0.12
A21G U54G A64G U74A	0.59
A21G U54G C71A U74C	0.13
A21G U58A U69C U72C	0.21

Variant	self-cleavage
A21G U58C A75U	0.55
A21G U58C A77U	0.06
A21G U58C C59A A77U	0.11
A21G U58C C71G U72C	0.14
A21G U58C U72C	0.24
A21G U60C A64U	0.21
A21G U60C A77G	0.26
A21G U60C A77U	0.24
A21G U60C C62U	0.14
A21G U60C U69G	0.19
A21G U60C U72C	0.26
A21G U60G A75U	0.45
A21G U66A U72C	0.34
A21G U66C U72C	1.24
A21G U67A U80C	0.21
A21G U67C U72A	0.28
A21G U67C U78C	0.11
A21G U69A A77U	0.5
A21G U69A G70U	0.12
A21G U69C A75U	0.19
A21G U69C U74C	0.26
A21G U72C U74C	0.14
A21G U74A U80C C81U	1.11
A21G U76C A77U	0.75

Variant	self-cleavage
A21U A28C U41G A56G U60A U80C	0.23
A21U A28G A45G	0.03
A21U A28G G46A	0.06
A21U A28G U31A	0.09
A21U A28G U60C	0.08
A21U A28G U74A U78C	0.2
A21U A28U G33A A45U U60G U69C	0.03
A21U A28U U43C A56G	0.17
A21U A35G A47G A64G	0.64
A21U A45G A57G U58G	0.04
A21U A45G A57G U60A A64G U66C	0.03
A21U A45G U51C	0.16
A21U A45G U58C	0.22
A21U A45U U54C U66C U74C	0.15
A21U A45U U60G	0.14
A21U A47U A64G	0.03
A21U A47U U51A A64G	0.06
A21U A56U U60A U80A	0.13
A21U A56U U69C	0.09
A21U A57G A64U U78C	0.12
A21U A57G U58C	0.13
A21U A57G U80C	0.57
A21U A77G U78C	0.27
A21U C23G A47C U60C G73A	0.05

Variant	self-cleavage
A21U C23U A65U	0.04
A21U C23U U26C A47G	0.16
A21U C23U U26C G52A	0.06
A21U C27A G42A A75G	0.09
A21U C27U U54A U78C	0.32
A21U C29U A47G U51C G63A	0.11
A21U C29U A65G U78C	0.03
A21U C32U A35G U58C	0.1
A21U C32U A77G	0.34
A21U C32U U43C	0.1
A21U C32U U54A U66C C81U	0.09
A21U C37A G52A A77U	0.23
A21U C37A U60C	0.1
A21U C38U G46C A47G C62A	0.09
A21U C39A A56G U72C	0.07
A21U C40U A45U	0.08
A21U C44G A56G	0.05
A21U C44G G55A	0.13
A21U C50A G53C U76A A77G	0.07
A21U G24A A57G U66A	0.08
A21U G24A U26C U49A	0.06
A21U G24C A57G	0.19
A21U G30A U41C U51C U67G	0.1
A21U G30A U58C U76A	0.07

Variant	self-cleavage
A21U G30U U51C U67A A75G U76A	0.11
A21U G30U U74C U80C	0.5
A21U G33A U49C U72C	0.08
A21U G36A G70A	0.08
A21U G52A U67C	0.13
A21U G52U U58C A65G U80A	0.09
A21U U25A C34A U43C A56U	0.14
A21U U25C A28G U43A U54C U78A	0.05
A21U U25C A56G	0.21
A21U U25C C39A U43C U54C C71A	0.04
A21U U25C G52A	0.15
A21U U25C G55A G70A	0.43
A21U U25C U31C U49C	0.15
A21U U25C U41C A57C	0.11
A21U U25C U48G A65G U72C A75G	0.02
A21U U25C U69C	0.12
A21U U26A A35G	1.15
A21U U26A U51C A64G	0.12
A21U U26A U78A	0.3
A21U U26C A35G	0
A21U U26C A35U A45G	0.06
A21U U26C A56G U80A	0.18
A21U U26C C38A U48C U66C A77G	0.04
